# Measurements as given in paper PMC12136788.
# Some of the results follow.
# B1: chr2:159433012:159433119:-|CDS|ENSG00000123636|unk|FALSE|unique (ssRNA)
# RNA: GGGAGUUCUACAGUCCGACGAUCGCACUUACUACCAAAACUAAAAUGCAGAGCAAGAUUAAUGAAAACAUUGCUGCUGCAAGUAGCACCCCUUUUUCCUCACCUGUAAAUCUGAGUACAAGUGGGAGAAGAACCCCUGGCAAUCAACAGAGGAUUGAGCAUCA
# B2: chr1:42176760:42176861:-|3pUTR|ENSG00000198815|msi1|total|mutant (ssRNA)
# RNA: GGGAGUUCUACAGUCCGACGAUCGUCGCUCAGAUGUCCUUUGAAGUGGGAGGGAAUCAAUCCGGGGAUAAUUUCAAAUGGAACCGAGUAUUUUGAUAUUGUUCAUUCAGAGGGUGAUGUGUACAUAUCUAUAUUGUAUAUAUGCAACAGAGGAUUGAGCAUCA
# B3: chr1:54850123:54850236:-|3pUTR|ENSG00000116133|msi1_unk|FALSE|overlapping (ssRNA)
# RNA: GGGAGUUCUACAGUCCGACGAUCGCCUCCAACCCUAAGCCACUGGGACGGUGGCCAGAGAUGCCAGCAGCCUCUGUCGCCCUUAGUCAUAUAACCAAAAUCCAGACCUUAUCCACAACCCGGGGCUUGGAAAGGAAGGUAUUUCAACAGAGGAUUGAGCAUCA
# B4: chr4:124666837:124666938:-|3pUTR|ENSG00000151458|msi1|FALSE|unique (ssRNA)
# RNA: GGGAGUUCUACAGUCCGACGAUCAAUGAUUUCUUGGCAGUUUAAAAAAAAUAUUUUAUAGUAGUUUAGGGAGCUGCUUUAAGUAGUUUAAAUCUGGAUUUUCCCAGUAGAAUUCUUCUCAUCUCUGGCUAAACAUGUCAGAACCAACAGAGGAUUGAGCAUCA
# B5: ENSG00000133687:stop:overlap|stop_codon|ENSG00000133687|stop_codon|NA|stop_codon (ssRNA)
# RNA: GGGAGUUCUACAGUCCGACGAUCUUGCCAAAUUGGAUCGCCUAGAAAAACGAUUACAAGAAGUUCGAGAAAAGGAUCAAACAUAGCACCACCGUCUGACCCAACCUCAUAGGAUAAUGUGGUGCCUCUGAAAGGGGAGUGAUGCAACAGAGGAUUGAGCAUCA
# B6: ENSG00000198589:be:win_2001|CDS|ENSG00000198589|bound_else_gene|NA|bound_elsewhere_windowed (ssRNA)
# RNA: GGGAGUUCUACAGUCCGACGAUCGAAGGAUUCUGGAGUAAAGGAAGAUGAAUUACAGGCCAUUCUUAAUUACCUACUGACUAUGCAUGAGGAUGACAAUCUAAUGGAUGUCCUACAGCUGCUUGUUGCAUUAAUGUCAGAACACAACAGAGGAUUGAGCAUCA
# B7: chr1:109310645:109310811:-|3pUTR|ENSG00000134243|msi1|FALSE|unique (ssRNA)
# RNA: GGGAGUUCUACAGUCCGACGAUCAGGGUAACGGGGCUGGCCUGGCAUUAGUCAUUAUUUAGUUUCCAGGCCAACCAUCCAGAUAGAGAUUCCCUCUUUCCUUUGAGCAGUGCUCUCAAGAGCUCCGUGCCUGUCCACAAUGACCAACAGAGGAUUGAGCAUCA
# B8: chr21:25758092:25758193:+|CDS|ENSG00000154727|unk|total|mutant (ssRNA)
# RNA: GGGAGUUCUACAGUCCGACGAUCGAAUUCAGCAUGACCGAUACCGACCUCACCACACUCAACAUUUCGGGGAGAGAAUUAUGCCGUCUCAACCAAGAAGAUUUUUUUCAGCGGGUUCCUCGGGGAGAAAUUCUCUGGAGUCAUCAACAGAGGAUUGAGCAUCA
# B9: chr3:41225653:41225883:+|CDS|ENSG00000168036|unk|FALSE|unique (ssRNA)
# RNA: GGGAGUUCUACAGUCCGACGAUCCAUUACAACUCUCCACAACCUUUUAUUACAUCAAGAAGGAGCUAAAAUGGCAGUGCGUUUAGCUGGUGGGCUGCAGAAAAUGGUUGCCUUGCUCAACAAAACAAAUGUUAAAUUCUUGGCCAACAGAGGAUUGAGCAUCA
# B10: chr9:83661418:83661519:-|3pUTR|ENSG00000135018|msi1|FALSE|unique (ssRNA)
# RNA: GGGAGUUCUACAGUCCGACGAUCUAUAGUUGGGUGACCAGAUUUUGUCCUGCAUCUGUCCAGUUUAUUUGCUUUUUAAACAUUAGCCUAUGGUAGUAAUUUAUGUAGAAUAAAAGCAUUAAAAAGAAGCAAAUCAUUUGCACUCAACAGAGGAUUGAGCAUCA
# B11: chr15:34983303:34983404:-|CDS|ENSG00000198146|msi1|FALSE|unique (ssRNA)
# RNA: GGGAGUUCUACAGUCCGACGAUCGCUGAAAACAAUUUAAAAAUGCUAAAGAUUCAACAGUGUGUGGUAGCCAACAAACUACCUAGAAACAGGCCAUAUGUUUGCAAUAUUUGUUUUAAGCACUUUGAAACACCAUCAAAAUUACAACAGAGGAUUGAGCAUCA
# B12: chr10:30312946:30313047:-|3pUTR|ENSG00000107951|unk|total|mutant (ssRNA)
# RNA: GGGAGUUCUACAGUCCGACGAUCUCUUAUUCACAUAUAAAUUAAAGUGGGUUGGUACUGAUAUCAAAAAAUGUUUAUGUUUUCCGAACAGACAUUUCAGUCACUGCAUUCUCCGGUAUUCCAAACCAAAUAUGAUGACAUCAACAACAGAGGAUUGAGCAUCA
# B13: chr16:3022182:3022332:+|3pUTR|ENSG00000006327|msi1|FALSE|unique (ssRNA)
# RNA: GGGAGUUCUACAGUCCGACGAUCCCACGGGGGUCACCCUGGGGGGUUAGGGACCUAUUUUUAACACUAGGGGGCUGGCCCACUAGGAGGGCUGGCCCUAAGAUACAGACCCCCCCAACUCCCCAAAGCGGGGAGGAGAUAUUUCAACAGAGGAUUGAGCAUCA
# B14: chr1:235448940:235449205:-|3pUTR|ENSG00000162885|unk|total|mutant (ssRNA)
# RNA: GGGAGUUCUACAGUCCGACGAUCAACCGAGAAUUCCAUUAAAACCCGUCUUAUGACAGAUAUUAACUGUGUUCAGAUUUUAUCCGGCCCGCCCGUUUCUUUCUAUUUAAUAUUUAAAUCUUAUCAUGAAAUGCAGUGAUGAGCCAACAGAGGAUUGAGCAUCA
# Target: T1, UNK ZnF1-6 (called full-length) (human, UniProt Q9C0B0 30-357)
# T1 sequence: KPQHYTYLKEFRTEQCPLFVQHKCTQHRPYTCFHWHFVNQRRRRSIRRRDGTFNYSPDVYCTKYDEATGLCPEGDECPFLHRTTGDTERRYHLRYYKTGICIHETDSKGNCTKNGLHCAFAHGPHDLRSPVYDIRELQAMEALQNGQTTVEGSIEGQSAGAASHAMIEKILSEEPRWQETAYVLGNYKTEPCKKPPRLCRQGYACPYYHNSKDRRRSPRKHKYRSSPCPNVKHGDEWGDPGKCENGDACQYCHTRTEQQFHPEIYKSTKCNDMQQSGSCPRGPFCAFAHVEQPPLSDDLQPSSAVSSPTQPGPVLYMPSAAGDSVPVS
# Assay: nsRBNS (natural sequence RNA bind-n-seq); RBNS binding buffer (assumed for nsRBNS): 25 mM Tris pH 7.5, 150 mM KCl, 3 mM MgCl2, 0.01% Triton X-100, 500 ug/ml BSA, 20 U/ml SUPERase-In, 4 C; UNK is unkempt and MSI1 is Musashi-1; names of the RNAs are library labels; protein concentration not given here; high values mean tight binding
row,Binder,binding signal
1,B1,0.502 enrichment R
2,B2,1.09 enrichment R
3,B3,2.25 enrichment R
4,B4,1.65 enrichment R
5,B5,0.41 enrichment R
6,B6,0.539 enrichment R
7,B7,2.82 enrichment R
8,B8,0.691 enrichment R
9,B9,0.535 enrichment R
10,B10,7.97 enrichment R
11,B11,0.38 enrichment R
12,B12,0.417 enrichment R
13,B13,0.628 enrichment R
14,B14,2.39 enrichment R
